PubChem BioAssay AID686978 (National Center for Advancing Translational Sciences (NCATS), 2013)
Among all 420,000 compounds or so, about 64,000 (15%) were called active. Inconclusive results, whose numbers are uncertain, are shown with a selection of clear calls. Calls follow the shape of the dose curve; as a rule, active = well fitted inhibition curve with a large enough effect; inconclusive = small, poorly fitted or top-dose-only effect; inactive = flat fitted curve, though single readings scatter. No potency is given beside an inconclusive call; the fits are too rough.

experiment: qHTS for Inhibitors of human tyrosyl-DNA phosphodiesterase 1 (TDP1): qHTS in cells in absence of CPT; conditions: DT40 Tdp1-/- hTDP1 cells, no CPT, ATP luminescence, 48 h; activity change, negative = growth inhibition: at 46.2 µM (top of the series) unless noted; also: nearly all actives have a fitted effect of over 55% in size
Procedure, shortened: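 No-CPT arm: Tdp1-/-;hTDP1 DT40 cells (400/well) plus compounds, incubated ≥48 hr at 37 °C. Readout CellTiter-Glo luminescence.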
% is scaled to controls: 0 for no effect and ±100 for the full control effect; potency is read from the fitted curve at half-maximal effect; tags tell the direction and shape of the fitted curve.

SMILES	Potency	activity change, negative = growth inhibition
CC(C)Oc1ccc(C(=O)NCC2Cc3cc(Cl)cc(-c4ncccn4)c3O2)cc1 (configuration not stated)	inconclusive [inhibitor, partial curve]	–
CC1(C)Cc2c(cnn2-c2cccc(F)c2)C(NC(=O)CSc2ccccn2)C1 (configuration not stated)	inconclusive [inhibitor, single point]	–
CC1CCC2(CC1)NC(=O)N(Cc1cccc(C(F)(F)F)c1)C2=O (configuration not stated)	inconclusive [inhibitor, single point]	–
CCCOC(=O)c1[nH]c2c(c1C)C(=O)CC(c1cccs1)C2 (configuration not stated)	active: 0.58 µM	–
CCc1cnc2c(c1SCC(=O)NCc1ccc(C)cc1)c(=O)n(C)c(=O)n2C	inconclusive [inhibitor, single point]	–
O=CN1c2ccccc2CSc2ccccc21	–	inactive: -15.7%
COc1ccc(C(CNC(=O)Cc2c(F)cccc2Cl)N2CCCCC2)cc1 (configuration not stated)	–	inactive: -8.64%
C=CCn1c(SCC(=O)c2c(N)n(CCC)c(=O)n(C)c2=O)nc2sc(CC)cc2c1=O	active: 5.8 µM	–
C[N+]1(CC(=O)c2ccc(Cl)c(Cl)c2)CCOCC1	–	inactive: -1.21%
OC(CNCCc1ccc(C(F)(F)F)cc1)COc1cccc2ccccc12 (configuration not stated)	inconclusive [inhibitor, single point]	–
C/C(=N\NC(=S)NCc1ccccc1)c1cccs1	inconclusive [inhibitor, single point]	–
CN(C(=O)COC(=O)Cc1c(Cl)cccc1Cl)C1CCS(=O)(=O)C1 (configuration not stated)	–	inactive: -3.97%
CC(=O)c1ccc(NS(=O)(=O)c2ccc(Br)s2)cc1	–	inactive: 7.62%
COC(=O)c1cc(OC)c(OC)cc1NC(=O)c1cc(C(C)(C)C)oc1C	–	inactive: -1.07%
O=C(NNc1ccccc1[N+](=O)[O-])NC1CCCCC1	–	inactive: -23.6%
COC(=O)[C@@]12C[C@@H](CC(=O)N3CCCC3)C(=O)N(Cc3ccc4c(c3)OCO4)C1=CCC(C)(C)C2	inconclusive [inhibitor, single point]	–
C/C(=N\N=C(/N)c1nonc1N)c1ccc2c(c1)OCO2	–	inactive: -3.72%
O=c1c(O)c(Br)ccc2c(Br)c(O)c(O)c(O)c12	–	inactive: 8.26% [at 9.04 µM]
Cc1ccc(-n2c(C)cc(C=C3C(=O)CC(C)(C)CC3=O)c2C)cc1	inconclusive [inhibitor, single point]	–
Cc1cc(S(=O)(=O)Nc2ccc(C(=O)N3CCN(C(=O)c4ccco4)CC3)cc2)ccc1F	inconclusive [inhibitor, partial curve]	–
CC(C)CCNC(=O)C1CCCN(S(=O)(=O)c2ccc(F)cc2)C1 (configuration not stated)	inconclusive [inhibitor, partial curve]	–
Cn1c(CC(=O)NNC(=O)c2ccc(Cl)nc2)nc2ccccc21	–	inactive: 1.61%
COc1ccc2c(c1)CC/C(=C\Nc1ccc3c(c1)OCO3)C2=O	inconclusive [inhibitor, single point]	–
CCCN(CC(=O)Nc1cc(Cl)ccc1Cl)C(=O)/C=C/c1ccco1	inconclusive [inhibitor, single point]	–

SMILES	Potency	activity change, negative = growth inhibition
COc1ccccc1NS(=O)(=O)c1ccc2c(c1)NC(=O)C(C)S2 (configuration not stated)	inconclusive [inhibitor, single point]	–
CSc1nc(=O)n(CCC#N)nc1SC	–	inactive: -19.5%
COc1ccc(CNC(=O)c2ccc(-c3cnn(C)c3)c3ccoc23)cc1OC	inconclusive [inhibitor, single point]	–
Cc1cccc(C(=O)NC2CC3CCCC(C2)N3S(=O)(=O)c2ccccc2)c1 (configuration not stated)	active: 18.4 µM	–
CCN(CC)c1ccc(/C=C(\C#N)C(=O)c2ccc(Br)cc2)cc1	–	inconclusive: -34% [inhibitor]
CCn1cc(C(=O)N2CCN(c3cc(Cl)ccc3C)CC2)c(=O)c2cc(S(=O)(=O)N3CCCC3)ccc21	active: 25.9 µM	–
COc1ccc(NC(=O)NCC(C)CSc2ccc(C)cc2)c(OC)c1 (configuration not stated)	inconclusive [inhibitor, single point]	–
CCOc1ccc(C(=O)OCc2cc(=O)n3nc(C4CC4)sc3n2)cc1	–	inactive: -21.8%
CN(Cc1ccc2c(c1)CCCN2C)C(=O)[C@H]1O[C@@H](n2cnc3c(N)ncnc32)[C@H](O)[C@@H]1O	inconclusive [inhibitor, single point]	–
Cc1cccc(C(C(=O)NCc2ccc(F)cc2)N(C(=O)c2csnn2)C2CC2)c1 (configuration not stated)	inconclusive [inhibitor, single point]	–
COCCNC(=O)c1ccc(CSc2nc3ccccc3s2)cc1	inconclusive [inhibitor, single point]	–
Cc1c(S(=O)(=O)N2CCCC2)c(=O)n(C)c(=O)n1C	–	inactive: -3.17%
N#Cc1ccsc1NC(=O)C1CCN(S(=O)(=O)c2cccs2)CC1	–	inactive: -18.6%
Cc1cc(Br)ccc1NC(=O)CN(C)C(=O)c1ccccc1OCc1c(C)noc1C	inconclusive [inhibitor, single point]	–
Cc1nn(-c2ccccc2)c(C)c1C(=O)OCC(O)=C(C#N)c1nc2ccccc2[nH]1	inconclusive [inhibitor, single point]	–
Cc1coc2cc3oc(=O)c(CCC(=O)N4C[C@H]5C[C@@H](C4)c4cccc(=O)n4C5)c(C)c3cc12	inconclusive [inhibitor, single point]	–
COc1cc2nc(SCC(=O)Nc3ccccc3C)n3nc(CCn4c(C)nc5ccccc54)nc3c2cc1OC	active: 3.26 µM	–
COc1cccc(CNC(=O)CCCn2ccc3cc(S(=O)(=O)N4CCCC4)ccc32)c1	inconclusive [inhibitor, single point]	–
CCC(CC)C(=O)Nc1cccc(-c2nc3ccccc3o2)c1	active: 16.4 µM	–
CCOC(=O)c1ccc(N2CCN(c3ccccc3OC)CC2)c(NC(=O)Nc2ccc(CC)cc2)c1	inconclusive [inhibitor, full curve, poor fit]	–
CCN(CC(=O)Nc1ccc(NC(C)=O)cc1)C(=O)c1cccnc1Sc1ccc(C)c(C)c1	inconclusive [inhibitor, full curve, poor fit]	–
Cc1cccc2sc(N(Cc3cccnc3)C(=O)CCOc3ccccc3)nc12	inconclusive [inhibitor, single point]	–
Cc1ccc(S(=O)(=O)N2CCCC2CNC(=O)c2ccccc2)cc1 (configuration not stated)	–	inactive: -29.4%
O=C(CN1CCN(c2ccccc2)CC1)Nc1scc2c1c(=O)oc1ccccc12	inconclusive [inhibitor, single point]	–

SMILES	Potency	activity change, negative = growth inhibition
CC(C)CC(=O)N1CCN(Cc2ccc(Cl)cc2)CC1	inconclusive [inhibitor, single point]	–
Cc1cccc(C)c1OCC(=O)N(Cc1ccco1)C1CCS(=O)(=O)C1 (configuration not stated)	–	inactive: -7.7%
O=C(CCc1nnc(COc2ccccc2)o1)NCc1ccccc1	inconclusive [inhibitor, single point]	–
COc1ccc(CN2C(=O)c3c(c(C)n(C)c3C)C2C(=O)NC2CCC(C)CC2)cc1 (configuration not stated)	–	inactive: -21.4%
O=C1c2cccc3cccc(c23)C(=O)N1CCCCCc1n[nH]c(=S)o1	–	inactive: -12.8%
COc1ccccc1NC(=O)Nc1ccccc1SC	inconclusive [inhibitor, single point]	–
Cc1nc2ccc(NC(=O)Nc3ccnc4cccnc34)cc2o1	active: 21.1 µM	–
O=C(Cn1c(=O)oc2cc(S(=O)(=O)N3CCCC3)ccc21)N1CCN(c2ccccn2)CC1	–	inactive: -6.9%
CC(C)Cn1c(N)c(C(=O)CSc2ccccc2)c(=O)n(C)c1=O	active: 8.2 µM	–
CCC(CC)c1nnc(NC(=O)C2CC(=O)N(CCc3ccc(OC)c(OC)c3)C2)s1 (configuration not stated)	inconclusive [inhibitor, partial curve]	–
O=C(COc1ccc(Cl)cc1)Nc1ccccc1C(=O)NCc1cccnc1	active: 23.1 µM	–
COc1ccc(CNC(=O)C2=CC(c3ccc(OC)c(OC)c3)=NS(=O)(=O)N2C)cc1	inconclusive [inhibitor, single point]	–
O=C(O)/C=C/C(=O)Nc1ccc2nccnc2c1	–	inactive: -18.5%
CC(=O)NS(=O)(=O)c1ccc(NS(=O)(=O)c2ccc(F)cc2)cc1	–	inactive: -1.36%
Cc1cc(C(=O)N2CCN(c3cccc(Cl)c3)CC2)c2c(C)nn(-c3ccccc3Cl)c2n1	active: 29.1 µM	–
CN(CC(=O)Nc1ccc(C#N)cc1)Cc1ccc(Cl)c(Cl)c1	inconclusive [inhibitor, single point]	–
CC(C)NC(=O)CN(Cc1ccc(F)cc1)C(=O)CCC(=O)Nc1ccccn1	–	inactive: -1.76%
CC12CCC(C(=O)N3CCc4ccccc43)(CC1=O)C2(C)C (configuration not stated)	inconclusive [inhibitor, single point]	–
CN1CCn2cnc(C(=O)Nc3ccc(CNC(=O)OC(C)(C)C)cc3)c2C1=O	inconclusive [inhibitor, partial curve, poor fit]	–
CCn1ccnc1CN(C)Cc1cn(C)nc1-c1ccccc1F	–	inactive: 0.175%
COc1ccc(S(=O)(=O)c2c(Nc3ccc(C)cc3C)sc(C(=O)c3ccc(F)cc3)c2N)cc1	inconclusive [inhibitor, partial curve]	–
COc1ccc(CC(=S)N2CCOCC2)cc1	active: 18.4 µM	–
CCn1c(-c2cc(-c3cccc(OC)c3)nc3ccccc23)n[nH]c1=S	inconclusive [inhibitor, single point]	–
CC12CCC(C(=O)Nc3ccccc3Br)(C/C1=N\O)C2(C)C (configuration not stated)	inconclusive [inhibitor, partial curve]	–
